Measurements from publication PMC4336329 (PLoS ONE, 2015).
About 2,200 (0.71%) of roughly 310,000 compounds showed an effect of 50% or more. The effect is printed as a negative number. The list shows a part of the results.

biological target: human ether-à-go-go-related gene (hERG) potassium channel (human, UniProt Q12809); experiment: primary screen, population patch clamp on CHO cells stably expressing hERG
Sequence (Q12809 whole entry, looked up): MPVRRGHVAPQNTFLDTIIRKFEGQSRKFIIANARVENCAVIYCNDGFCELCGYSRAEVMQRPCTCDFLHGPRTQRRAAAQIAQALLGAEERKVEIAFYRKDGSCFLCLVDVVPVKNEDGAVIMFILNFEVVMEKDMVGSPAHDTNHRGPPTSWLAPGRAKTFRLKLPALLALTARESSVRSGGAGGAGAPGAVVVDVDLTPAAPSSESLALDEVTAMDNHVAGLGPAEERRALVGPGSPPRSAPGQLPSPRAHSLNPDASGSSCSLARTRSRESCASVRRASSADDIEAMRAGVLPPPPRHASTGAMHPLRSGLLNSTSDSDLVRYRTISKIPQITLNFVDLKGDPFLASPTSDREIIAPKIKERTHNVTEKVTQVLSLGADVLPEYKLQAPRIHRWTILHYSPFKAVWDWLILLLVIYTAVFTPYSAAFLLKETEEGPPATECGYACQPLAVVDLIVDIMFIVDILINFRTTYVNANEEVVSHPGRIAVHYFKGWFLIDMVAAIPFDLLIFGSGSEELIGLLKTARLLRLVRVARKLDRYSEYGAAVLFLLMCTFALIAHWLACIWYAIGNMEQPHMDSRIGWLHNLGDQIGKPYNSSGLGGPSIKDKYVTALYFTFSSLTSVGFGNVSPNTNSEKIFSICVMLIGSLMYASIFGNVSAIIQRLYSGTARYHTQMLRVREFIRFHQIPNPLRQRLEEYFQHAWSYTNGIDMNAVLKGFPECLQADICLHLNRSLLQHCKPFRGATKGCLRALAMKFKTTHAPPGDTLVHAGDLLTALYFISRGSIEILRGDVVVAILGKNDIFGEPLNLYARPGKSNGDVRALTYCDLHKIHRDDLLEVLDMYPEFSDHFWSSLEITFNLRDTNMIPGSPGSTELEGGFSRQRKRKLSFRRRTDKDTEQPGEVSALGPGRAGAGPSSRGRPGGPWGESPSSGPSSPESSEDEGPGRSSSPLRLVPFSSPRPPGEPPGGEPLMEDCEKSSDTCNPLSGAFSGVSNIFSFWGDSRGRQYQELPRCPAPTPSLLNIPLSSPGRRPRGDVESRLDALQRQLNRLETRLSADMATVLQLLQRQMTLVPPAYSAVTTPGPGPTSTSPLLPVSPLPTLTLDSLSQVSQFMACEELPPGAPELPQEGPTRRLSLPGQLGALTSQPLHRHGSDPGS

Row | SMILES | hERG current change (%, negative = inhibition) at 1uM [%]
1 | O=C(O)C1CCCCC1C(=O)Nc1ccccc1Nc1ccccc1 (stereo not drawn) | -4.33
2 | COc1ccccc1-c1nnc(SCC(=O)Nc2ccc(N3CCOCC3)cc2)n1C | 1.8
3 | COCC(=O)OCC(=O)c1cc(C)n(-c2ccc(Br)cc2)c1C | 5.49
4 | CC(/C=N/NC(=O)CCn1nnc2ccccc21)=C\c1ccccc1 | 18.3
5 | CCOC(=O)N1CCC(N2C(=O)c3ccccc3C2Nc2cc(C(=O)OC)cc(C(=O)OC)c2)CC1 (stereo not drawn) | 5.16
6 | Cc1cc2c(n1-c1ccc(C(N)=O)cc1)CC(C)(C)CC2=O | 5.52
7 | CCCCOc1ccccc1NC(=O)CC1SC(=NCC)N(CC)C1=O (stereo not drawn) | 12.2
8 | Cc1ccc(NC(=O)CN2C(=S)NC(C)(C)CC2C)cc1Cl (stereo not drawn) | 13.7
9 | COc1ccc(CCNC(=O)CNC(=O)Cn2ccc3ccccc3c2=O)cc1OC | 9.27
10 | NC(=O)c1ccc(-c2csnn2)cc1 | 1.23
11 | O=C(N1CCOCC1)N(CCN1CCOCC1)Cc1cccc(Cl)c1 | 5.16
12 | Cc1ccc(-c2nn(C)c(=O)c3ccccc23)cc1CNC(=O)CSc1nc2ccccc2o1 | -0.172
13 | Cc1cccc(C(=O)Nc2cc(Cl)ccc2-n2cncn2)c1[N+](=O)[O-] | 6.65
14 | O=C(O)CCC(=O)N1CCc2cc(S(=O)(=O)NCCc3ccc(Cl)cc3)ccc21 | 10.8
15 | Cn1c(=O)c2c(-c3ccccc3)n(Cc3cccnc3)cc2n(C)c1=O | 14.3
16 | CCOc1ccc(CN2CCN(Cc3c(C)nn(CC)c3C)CC2CCO)cc1 (stereo not drawn) | -20.7
17 | O=C(NCc1cccs1)C(NS(=O)(=O)c1cccc2nsnc12)c1ccccc1 (stereo not drawn) | 6.82
18 | COc1cccc(-c2csc(N3CCN(C(=O)Nc4ccc(F)cc4)CC3)n2)c1 | 0.939
19 | CCOc1ccc(N(CC(=O)N2CCC(Cc3ccccc3)CC2)S(C)(=O)=O)cc1 | 5.21
20 | CNc1cc(C)c(C#N)c2nc3ccccc3n12 | 3.69
21 | Cc1ccc(C)c(OCC(=O)Nc2cc(C)on2)c1 | 9.74
22 | COc1ccc(C(=O)Nc2ccnn2C2CCN(C(=O)CCC(F)(F)F)CC2)cc1 | 12.7
23 | Cc1ccc(C(C)(C)NC(=O)C2CCC(=O)N(Cc3ccccc3F)C2)cc1 (stereo not drawn) | 22.3
24 | O=C(COC(=O)c1ccc(Cl)nc1)c1ccc2c(c1)OCCO2 | 13.9
25 | CCOC(=O)C1CCN(c2c(NCCCN(CC)c3ccccc3)c(=O)c2=O)CC1 | 8.8
26 | COc1ccc(S(=O)(=O)N2CCN(Cc3ccc(Cl)cc3)CC2)cc1 | -4.05
27 | Cc1ccc(NC(=O)c2cccs2)cc1[N+](=O)[O-] | 10.9

Row | SMILES | hERG current change (%, negative = inhibition) at 1uM [%]
28 | CC(C)(C)C(=O)NCCN1C(=O)S/C(=C\c2ccc([N+](=O)[O-])cc2)C1=O | 2.31
29 | Cc1ccccc1CS(=O)(=O)CC1(O)CCN(C(=O)c2cccc(C(F)(F)F)c2)CC1 | 14.2
30 | COc1ccc(N2CCN(CCNC(=O)C3CCN(S(=O)(=O)c4cccs4)CC3)CC2)cc1 | -20.5
31 | Cc1ccccc1C1c2[nH]c3ccccc3c2CCN1CCCn1cccn1 (stereo not drawn) | 6.62
32 | CN(Cc1ccccn1)Cc1nc(-c2ccc(Cl)cc2)no1 | 2.33
33 | O=C(NCCCN1CCOCC1)c1c(O)c2cc(Br)cc(Br)c2[nH]c1=O | 0.873
34 | CCc1cccc(CC)c1NC(=O)c1ccccc1CCc1ccccc1 | 10.6
35 | CCCc1cc(=O)[nH]c(SC(CC)C(=O)Nc2ccccc2C#N)n1 (stereo not drawn) | 1.57
36 | CCCCS(=O)(=O)N1CCC(C(=O)NCC2CCCO2)CC1 (stereo not drawn) | 19.1
37 | CC(C)NC(=S)NC(c1ccccc1)(c1ccccc1)c1ccccc1 | 15.7
38 | Cc1cccc(-n2ncc3c(N4CCC5(CC4)OCCO5)ncnc32)c1 | 7.13
39 | CCC(=NCc1ccco1)c1c(O)n(Cc2ccccc2)c(=O)[nH]c1=O | 6.41
40 | COc1ccc(N2CCN(C(=O)c3ccc(CS(=O)(=O)c4ccc(OC)cc4)o3)CC2)cc1 | -20
41 | CC(=O)N(/N=C1/C(=O)Nc2ccccc21)c1ccccc1 | 16.7
42 | CCN1CCN(C(=O)c2cc(S(=O)(=O)Nc3ccc(S(C)(=O)=O)cc3)ccc2Cl)CC1 | 15.7
43 | COc1cc(/C=C(\C#N)C(=O)Nc2cccc3ncccc23)cc(OC)c1OC.Cl | 14.9
44 | O=C(CCN1C(=O)[C@@H]2Cc3ccccc3CN2C1=O)N[C@H](Cc1ccccc1)C(=O)O | 6.46
45 | Cc1ccc(N2C(=O)CC(NNC(=O)Cc3ccc(F)cc3)C2=O)cc1Cl (stereo not drawn) | 11.6
46 | Cc1ccccc1OCC(=O)OCC(=O)Nc1ccc(S(N)(=O)=O)cc1 | 7.14
47 | O=C(CSc1nnnn1-c1ccccc1)CSc1nnnn1-c1ccccc1 | 10.2
48 | COc1cc(OC)cc(C(=O)N[C@H](C(=O)OCc2cc(=O)oc3cc(C)ccc23)C(C)C)c1 | 1.65
49 | CCN1CCN(c2ccc(S(=O)(=O)N3CCOCC3)cc2NC(=O)C(C)Oc2ccc(F)cc2)CC1 (stereo not drawn) | -11.2
50 | COC(=O)C1=C(C)N(CCc2ccc(OC)cc2)C(=O)C1 | -8.24
51 | Cc1ccc(O)c(C2=NCCNC(C(F)(F)F)=C2)c1 | 5.32
52 | O=C(COC(=O)c1cncc(Br)c1)NCc1ccc(F)cc1 | 6.7
53 | CCOc1cc(/C=C2\SC(=NC)N(C)C2=O)c(Br)cc1OC(C)=O | 13.5
54 | Cc1ccc(S(=O)(=O)Nc2ccc(O)c(Sc3ncn[nH]3)c2)cc1 | 10.2
